Out of some 360,000 compounds screened, about 2,600 (0.72%) were called active. Inconclusive results, whose numbers are uncertain, are shown with a selection of clear calls. Calls come from the whole dose curve; as a rule, active = well fitted inhibition curve with a large enough effect; inconclusive = small, poorly fitted or top-dose-only effect; inactive = no such curve, though single readings can be large or run the other way. Where the call is inconclusive, the potency comes from a doubtful curve fit.
assay: Primary qHTS for Inhibitors of ATXN expression; conditions: HEK-293 ATXN2-luciferase reporter, luminescence, 24 h; series mostly up to 57 µM; note: nearly all actives have a fitted effect of over 55% in size
Method in brief: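 qHTS (up to 57 uM final) was run with 24 h compound exposure of reporter cells at 37 °C. Each well was multiplexed: SteadyGlo luminescence measured ATXN2-luciferase expression after a fluorogenic Gly-Phe-AFC viability readout (25 uM final).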
Potency is the fitted concentration of half-maximal effect; tags give direction and shape of the fitted curve.

Row | Compound | Potency
1 | COc1ccc(C2(c3ccc(OC)cc3)NC(=O)N(CC(=O)Nc3ccc(OC(F)F)cc3)C2=O)cc1 | inconclusive: 25.1 µM [inhibitor, single point]
2 | COc1ccccc1NC(=O)Nc1nc(C(N)C2CCCCC2)cs1 (configuration not stated) | inconclusive: 35.5 µM [inhibitor, single point]
3 | CNC(=O)C1(C)Cc2c(-c3ccc(NC(C)=O)cc3)ccnc2O1 (configuration not stated) | inactive
4 | CCC(C(=O)Nc1ccc(S(=O)(=O)Nc2ncccn2)cc1)c1ccccc1 (configuration not stated) | inactive
5 | Cc1ccc(NC(=O)c2cc(N3C(=O)C=CC3=O)ccc2N2CCOCC2)cc1Cl | inconclusive: 39.8 µM [inhibitor, partial curve, poor fit]
6 | CCOC(=O)c1nc(Nc2ccc(Nc3ccccc3)cc2)c2ccccc2n1 | inconclusive: 23.8 µM [inhibitor, partial curve, poor fit]
7 | CC(C)C1CC(CCNCc2ccc(N(C)C)cc2)(c2ccccc2)CCO1 (configuration not stated) | inconclusive: 39.8 µM [inhibitor, single point]
8 | COC/C=C/C1=CC2=CC(=O)C(C)(OC(=O)c3cnc4ccccc4n3)C(=O)C2=CN1C1CC1 (configuration not stated) | inconclusive: 39.8 µM [inhibitor, single point]
9 | C[C@H](NC(=O)Cc1cc(F)cc(F)c1)C(=O)N[C@H](C(=O)OC(C)(C)C)c1ccccc1 | inconclusive: 0.0863 µM [inhibitor, full curve]
10 | CCS(=O)(=O)Nc1ccc(C2=NN(C(=O)c3ccccc3)C(c3cccs3)C2)cc1 (configuration not stated) | inconclusive: 14.1 µM [inhibitor, partial curve, poor fit]
11 | COc1ccc(-c2ccc(OC)c([C@H]3[C@@H]4C=CCC[C@@]4(C)C(=O)N3Cc3ccccc3)c2)cc1OC | inconclusive: 25.1 µM [inhibitor, partial curve, poor fit]
12 | Cc1c(C(=O)c2ccc(F)cc2)c2ccccn2c1CCc1ccccn1 | inconclusive: 28.2 µM [inhibitor, single point]
13 | O=C(Nc1ccc2nc3n(c(=O)c2c1)CCCC3)c1cccc(F)c1 | inactive
14 | O=C(CCl)Nc1cc(SCC(O)CO)cc([N+](=O)[O-])c1 (configuration not stated) | active: 3.98 µM
15 | Cc1ccc2nc3sc(C(=O)N4CCOCC4)c(N)c3cc2c1 | active: 2.51 µM
16 | COc1cc(/C=N/NC(=Nc2ccc(C)cc2)c2nc3ccccc3s2)ccc1O | inconclusive: 39.8 µM [inhibitor, single point]
17 | Cc1nn(Cc2ccc(Cl)cc2)c(C)c1NC(=O)c1cc(-c2ccco2)on1 | inconclusive: 22.4 µM [inhibitor, partial curve, poor fit]

From PubChem BioAssay AID1745845 (National Center for Advancing Translational Sciences (NCATS), 2022)
